The test has as its system NCI-H322M lung. In words: DTP human tumour cell line panel, 48 h.

Several values for one entry are separate records, joined by “and”; a condition that tells them apart may be missing. Equal entries are not always repeated.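 Dose response: 5 concentrations. Exposure: 48 h. Format: 96-well plates. Endpoint: linear interpolation; highest concentration if not reached. GI50: concentration for 50% inhibition of growth. The concentration for full growth arrest is given as TGI.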 Bounds are passed on as bounds.

As to `COc1cccc(CCNc2c(C#N)c3nc4ccccc4n3c3ccccc23)c1`, the concentration for total growth inhibition (TGI) – broadly, the concentration giving total growth inhibition – is above 79.1 µM. On the same count and under the same terms, to `COc1cc2oc(-c3ccc(O)cc3O)c(CC=C(C)C)c(=O)c2c(O)c1/C=C/C(C)C` belongs 16.5 µM; to `NC1(C(=O)O)CCc2ccc(N(CCCl)CCCl)cc2C1` (stereo unspecified), above 100 µM; to `O=C(CC1(O)C(=O)Nc2ccccc21)c1ccc(F)cc1` (stereo unspecified), above 100 µM. Same read-out and setting: the same measure for `O=C(O)C1CCC(=O)N1S(=O)(=O)c1ccccc1` (stereo unspecified): above 100 µM. In the case of `C/C(=N\NS(=O)(=O)c1ccc(C)cc1)c1cc2ccccc2n1C`, the TGI was above 100 µM.

As to `c1ccc(N=c2nc(N3CCOCC3)ss2)cc1`, the TGI is above 100 µM. Turning to `CCC(=O)NC(Nc1cccc(F)c1)(C(F)(F)F)C(F)(F)F`, the TGI is above 100 µM. Same read-out and setting: the same measure for `C=CCc1cc(C=C(C#N)C#N)cc(OC)c1O`: above 100 µM. On to `CC(=O)[CH-]C(=O)c1ccccc1.CC(=O)[CH-]C(=O)c1ccccc1.CC1(C)OCC(C2OC3OC(C)(C)OC3C2[O-])O1.CC1(C)OCC(C2OC3OC(C)(C)OC3C2[O-])O1.[Ti+4]` (stereo unspecified), for which the GI50 (as a rule, the concentration at which growth is held to half of that of the control) was 26.8 µM and the TGI turned out to be 67.4 µM. The compound `c1cc2nnc1SCCCSc1ccc(nn1)SCCCSc1ccc(nn1)SCCCS2` registered a TGI above 100 µM.

`c1ccc(-c2nnc(SCc3c[nH]c4ccccc34)n2-c2ccccc2)cc1` showed a TGI above 100 µM. For the compound `CC1(C)CCCC(C)(C2CCC3(C)C2C(O)CC2C4(C)CCC(O)C(C)(C)C4C(O)CC23C)O1` (stereo unspecified), the concentration for total growth inhibition (TGI) is 49.8 µM. Regarding `N#Cc1ccsc1NC(=O)COC(=O)c1cccc(S(=O)(=O)N2CCc3ccccc32)c1`, the GI50 is above 100 µM and the TGI is above 100 µM. `O=C(COc1ccc(OCC(=O)NNC2=NC(c3cc(F)c(Cl)cc3Cl)CS2)c(Cl)c1)NNC1=NC(c2cc(F)c(Cl)cc2Cl)CS1` (stereo unspecified) gave a TGI above 100 µM. `Cn1cc(S(=O)(=O)NC(=O)Nc2ccc(Cl)cc2)c2ccccc21` registered a TGI above 100 µM. With `NCCCn1c2c(c3ccc([N+](=O)[O-])cc3c1=O)C(=O)c1cc(-c3ccccc3)ccc1-2`, the GI50 is 0.841 µM and the TGI came out at 2.15 µM. In the case of `O=c1c2cccc(F)c2sc2c(N3CCNCC3)nc3ccccc3c12`, the GI50 was 1.59 µM and the total growth inhibition concentration (TGI) came to 2.95 µM. `CSCC[C@H](NC(=O)[C@H](CC(C)C)NC(=O)[C@@H](Cc1ccccc1)NC(=O)CNC(=O)[C@@H](NC(=O)[C@H](C)NC(=O)[C@H](Cc1c[nH]c2ccccc12)NC(=O)[C@H](CCC(N)=O)NC(=O)[C@H](N)CC(N)=O)C(C)C)C(N)=O` came in with a TGI above 12.5 µM. `CSc1c(C(=O)Nc2ccc(C)cc2)c(N)n(N)c(=O)c1C#N` displayed a TGI above 100 µM.

For `Clc1nc(Cl)c2c3c(sc2n1)CCCC3`, the GI50 is above 100 µM and the concentration for total growth inhibition (TGI) was above 100 µM. Regarding `COC(=O)NN1C(C)=C(C(=O)OC)C2(C#N)C(C(=O)OC)=C(C)N(NC(=O)OC)C12N` (stereo unspecified), the TGI is above 100 µM.

Take `CCC12CCCNC1c1c(n(C)c3ccccc13)C(C(=O)OC)C2` (stereo unspecified): the TGI came to 239 µM.

As to `COc1cc(/C=C2\Oc3cc(OCCCN4CCCC4)ccc3C2=O)cc(OC)c1`, the GI50 is 12.9 µM and the TGI stood at 25.6 µM.

With `COc1ccc2c(c1)C1OCCNC1CC2` (stereo unspecified), the total growth inhibition concentration (TGI) was above 100 µM. `CSc1cc(Br)ccc1-n1c(C(=O)c2ccccc2)c(SC)n(-c2ccccc2)c1=O` came in with a TGI above 100 µM. On the same count and under the same terms, the same measure for `N#CC1(Nc2ccc(-c3ccc(NC4(C#N)CCCC4)cc3)cc2)CCCC1`: above 100 µM. For `N.N.O=P([O-])([O-])CN(CCN(CP(=O)([O-])[O-])CP(=O)([O-])[O-])CP(=O)([O-])[O-].[Pt+2]`, the GI50 is above 100 µM and the total growth inhibition concentration (TGI) is above 100 µM. With `O=C1CCCC(=O)N1n1c(Cc2ccccc2)n[nH]c1=O`, the TGI is above 100 µM. The compound `COc1ccc(/C=C/C(=N/NC(=O)N/N=C(/C=C/c2ccc(OC)cc2)C(C)(C)CN2CCCCC2)C(C)(C)CN2CCCCC2)cc1` displayed a TGI of 6.6 µM.

In the case of `COC(=O)N/N=C(\C(=O)Nc1cccc([N+](=O)[O-])c1)c1nc2ccc([N+](=O)[O-])cc2[nH]c1=O`, the concentration for total growth inhibition (TGI) was above 100 µM. Consider `Nc1nc2c(nnn2C2OC(CO)C(O)C2O)c(=O)[nH]1` (stereo unspecified), for which the GI50 was 2.14 µM and the TGI was above 100 µM. The matching figures for `COc1ccc(-c2nc(Nc3ccc(-c4nc5ccccc5[nH]4)cc3)nc(N3CCOCC3)n2)cc1`: 3.62 µM and above 100 µM. `O=C(/C=C/c1ccccc1Cl)c1cccc2ccccc12` yielded a TGI of 28.2 µM. The same measure, in the same setting: the same measure for `O=c1c(C2=NCCC2)c(-c2ccc[nH]2)[nH]n1-c1ccccc1`: above 100 µM; for `O=c1cc(N2CCCC2)[nH]c(=O)n1-c1ccc(F)cc1`: above 100 µM; for `CN(C)CCC(CCN(C)C)=NOC(=O)c1ccccc1`: above 100 µM. The same measure, in the same setting: the same measure for `CC1(C)OCC(C2OC(OC(=O)c3ccc([N+](=O)[O-])cc3)C3OC(C)(C)OC23)O1` (stereo unspecified): above 100 µM. Consider `CN1CC[C@]2(c3cccc(O)c3)CC(=O)/C(=C/c3ccccc3)[C@H]1C2`, for which the GI50 was 3.28 µM and the TGI was 12.5 µM. The matching figures for `Cn1cc(-c2csc(-c3cn(CCCCN4CCCCC4)c4ccc(F)cc34)n2)c2cccnc21`: 1.74 µM and 3.12 µM. As for `CC(=O)OC1CC2(C)OC(Cc3ccccc32)O1` (stereo unspecified), the TGI is above 100 µM.

For `NC(=S)N/N=C/c1ccc(N)cn1`, the TGI was above 10 µM. For the compound `CCCCCc1cc[n+](CC(=O)c2ccc([N+](=O)[O-])cc2)cc1`, the GI50 is 16.6 µM and the TGI is 63.6 µM. `Cc1ccc(NCC(=O)N2CC(=O)Nc3ccccc32)cc1` yielded a TGI above 100 µM. `COc1cc(OC)c2c(=O)c(OC)c(-c3ccc4c(c3)OCO4)oc2c1OC` registered a TGI above 100 µM. Turning to `Nc1ccccc1NC(=O)c1ccc(CN2CCC/C(=C\c3ccccn3)C2=O)cc1`, the GI50 is 2.81 µM and the TGI is above 100 µM. Compound `CC(C)(C)CNC(=O)NCn1cc(-c2ccccc2)nn1` gave a total growth inhibition concentration (TGI) above 100 µM. In turn, `NC(=O)C(=CNC(=S)Nc1ccc(Cl)c(Cl)c1)C(N)=O` showed a TGI above 100 µM. Take `COC(=O)C[CH2][Ge]([CH3])([CH3])[S]c1ccccc1`: the GI50 is above 100 µM and the TGI is above 100 µM.

`COc1ccc(CNC(C)C(=O)O)cc1` (stereo unspecified) returned a TGI above 100 µM. Regarding `CC(=O)[CH-]C(=O)c1ccccc1.CC(=O)[CH-]C(=O)c1ccccc1.CC[C@H](/C=C/C(C)[C@H]1CCC2[C@@H]3CC=C4C[C@@H]([O-])CC[C@]4(C)C3CC[C@@]21C)C(C)C.CC[O-].[Ti+4]` (stereo partly specified), the GI50 was above 100 µM and the TGI is above 100 µM. As for `COC(=O)C(C(=O)C(=O)Nc1ccccc1C#N)c1nc2ccc([N+](=O)[O-])cc2[nH]c1=O` (stereo unspecified), the TGI is above 100 µM.

As to `Cc1[nH]c(C(=O)Nc2ccccc2OC2CCNCC2)c(Cl)c1Cl`, the GI50 is 1.47 µM and the TGI is 5.9 µM. With `C[C@H](NC(=O)n1c2ccccc2c2ccccc21)C(=O)O`, the TGI was above 100 µM. Same read-out and setting: the same measure for `Cc1ccc(S(=O)(=O)N2c3ccccc3[C@H]3CCC=C[C@H]32)cc1`: above 100 µM; for `Clc1ccc(CNc2nc(Cl)c3[nH]cnc3n2)cc1Cl`: above 100 µM. With `CCOP(=O)(Nc1ccccc1P(=O)(OCC)OCC)OCC`, the TGI is above 100 µM. With `C=C(C)C1CC=C(C)CC1` (stereo unspecified), the GI50 was above 100 µM; the TGI is > 100 µM and 1820 µM. As to `COC1=C(Br)C(O)C2(C=C1Br)CC(C(=O)NCCCCNC(=O)C1=NOC3(C=C(Br)C(OC)=C(Br)C3O)C1)=NO2` (stereo unspecified), the TGI was above 100 µM. Still for that read-out and setting: to `CCN1C(=O)/C(=C2\SC(c3ccccc3)(c3ccccc3)c3ccccc32)SC1=S` belongs above 100 µM. For the compound `NCCCCCCCCCCCn1c2c(c3ccccc3c1=O)C(=O)c1ccccc1-2`, the GI50 is 3.78 µM and the TGI was 11.8 µM. In the case of `CC(=O)OCC1=C(C(=O)O)C(c2ccc3c(c2)OCO3)c2cc3c(cc2O1)OCO3` (stereo unspecified), the TGI is above 100 µM. In turn, `COc1ccc2c(c1)[n+]([O-])c(-c1ccc(Br)cc1)c(N)[n+]2[O-]` returned a TGI of 96 µM. The same measure, in the same setting: to `C[C@]12CC[C@H]3[C@@H](CCC4=CC(=O)CC[C@@]43C)[C@@H]1CC[C@@H]2C(=O)COS(=O)(=O)c1ccc(Br)cc1` belongs 34.5 µM. For the compound `CN(C)CCC=C1c2ccccc2C(C)(C)c2ccccc21`, the GI50 is 16.3 µM and the TGI stood at 34 µM.

The compound `CN(C)c1ccc(-c2c(C#N)c(O)n(NS(=O)(=O)c3ccccc3)c(=O)c2C#N)cc1` had a TGI above 100 µM. `NNC1=N/C(=C\c2ccco2)C(=O)N1` gave a TGI above 100 µM.

Consider `Cc1cc2nc3ccc(=[N+](C)C)cc-3sc2cc1N`, for which the GI50 is 5.13 µM and 4.39 µM; the TGI was 19.6 µM and 48.9 µM and 16.7 µM. In turn, `O=S(=O)(c1ccc(Br)cc1)N1CCN(S(=O)(=O)c2ccc(Br)cc2)CC1` returned a TGI above 100 µM. On the same count and under the same terms, the same measure for `N#Cc1cc([N+](=O)[O-])ccc1NC(=O)C(F)(F)F`: above 100 µM; for `CCOC(=O)C1C(c2ccc(O)c(OC)c2)c2c([nH][nH]c2=O)CC1(C)O` (stereo unspecified): above 100 µM.

In the case of `O=c1c2ccccc2nc2n1C(c1ccc([N+](=O)[O-])cc1)C2(c1ccccc1)c1ccccc1` (stereo unspecified), the TGI is above 100 µM. The same measure, in the same setting: to `CCOc1ccc(/C(C=O)=C(\Cl)c2ccc(OC)c(OC)c2)cc1` belongs above 100 µM.

`COc1ccc2c(Cc3c4ccccc4cc4ccccc34)cncc2c1O` gave a TGI of 58.1 µM.

In turn, `CCCC(N)C(=O)c1ccccc1` (stereo unspecified) gave a TGI above 100 µM.

In turn, `O=C(NNC(=S)Nc1ccc(Br)cc1)c1cc(-c2ccccc2)nc2ccccc12` yielded a TGI of 61.2 µM. For `CC(C)COC(=O)OC(=O)c1ccc(N(C)Cc2cnc3nc(N)nc(N)c3n2)cc1`, the concentration for total growth inhibition (TGI) is above 100 µM.

Turning to `CSc1ccc2c(c1)N(CCC1CCCCN1C)c1ccccc1S2` (stereo unspecified), the GI50 was 7.14 µM and the TGI was determined as 22.2 µM. Consider `Cn1c2ccccc2c(=O)c2c(O)cc3c(c21)CC(C1(C)CO1)O3` (stereo unspecified), for which the total growth inhibition concentration (TGI) was 41.7 µM. In other words, the double-digit micromolar range.

Turning to `CN1C(=O)C(C(N)=O)C2CC1(C)Oc1ccccc12` (stereo unspecified), the TGI was above 100 µM.

As to `O=[N+]1ON=C(c2ccccc2)C1=C1C(c2c(-c3ccccc3)no[n+]2[O-])=NON1[O-]`, the TGI was determined as 91.5 µM. Regarding `O=[N+]([O-])c1ccc(Sc2nc(Cl)nc(NC3CCCC3)n2)cc1`, the GI50 was above 10 µM and the TGI is above 10 µM. The compound `O=C(Nc1nc(C23CC4CC(CC(C4)C2)C3)cs1)c1cc2cc(Cl)ccc2oc1=O` gave a TGI above 100 µM.

The compound `Cc1cc(=O)n2c3c(c4c(cc13)c(CO)cc(=O)n4C)OC2` displayed a concentration for total growth inhibition (TGI) of 59.8 µM.

For the origin of these results see PubChem BioAssay (NCI).
